No constants are given. Whether binding was seen depends on the method and setting. Some entries that bind do so weakly or less than the wild type. One block for each binder: values may come before it.
Key:
[1] = target: T1, SYCE2 core (amino-acids 57-165) (human, UniProt Q6PIF2 57-165); test: SEC-SAXS; co-purified complexes at >5 mg/ml on Superdex 200 Increase 10/300 GL in 20 mM Tris pH 8.0, 150 mM KCl; both purified
T1 construct: SYCE2, human, core, residues 57-165; also called SYCE2 structural core; source: E. coli BL21 (DE3), co-expressed with TEX12, purified (Ni-NTA, amylose, ion exchange, SEC); not shown: MBP, N-terminal, cleaved
T1 sequence (looked up): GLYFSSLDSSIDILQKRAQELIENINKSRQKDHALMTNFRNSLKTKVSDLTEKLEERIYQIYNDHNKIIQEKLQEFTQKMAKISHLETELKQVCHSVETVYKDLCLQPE

[2] = target: T1, SYCE2 core (amino-acids 57-165); test: crystal structure; SYCE2-TEX12 core ΔCtip 4:4 assembly, 33 mg/ml, 0.1 M sodium acetate pH 4.0, 65 % MPD, 20°C; space group P21212, 2:2 heterotetramer in the asymmetric unit; PDB 6YQF; both purified
[3] = target: T1, SYCE2 core (amino-acids 57-165); test: crystal structure; SYCE2-TEX12 core ΔCtip 2:2 complex, 33 mg/ml, 35 % MPD, 20°C; space group P21; PDB 6R17; both purified
[4] = target: T2, SYCE2 core ΔS2C (amino-acids 57-154) (human, UniProt Q6PIF2 57-154); test: SEC-SAXS; co-purified complexes at >5 mg/ml on Superdex 200 Increase 10/300 GL in 20 mM Tris pH 8.0, 150 mM KCl; both purified
T2 construct: SYCE2, human, ΔS2C, residues 57-154; source: E. coli BL21 (DE3), co-expressed with TEX12, purified (Ni-NTA, amylose, ion exchange, SEC); not shown: MBP, N-terminal, cleaved
T2 sequence (looked up): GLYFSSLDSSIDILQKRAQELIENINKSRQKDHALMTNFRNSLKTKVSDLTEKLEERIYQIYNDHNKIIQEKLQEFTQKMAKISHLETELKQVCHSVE

[5] = target: SYCE2-TEX12 full-length wild-type, 2:2 building block (human) (UniProt Q6PIF2+Q9BXU0); test: negative-stain electron microscopy; co-purified complexes at 0.005-3 mg/ml on carbon-coated grids, 2% uranyl acetate; fibres detected and measured by image analysis; both purified
[6] = target: T3, SYCE2-TEX12 full-length LFIL (TEX12 L110E F114E I117E L121E) 2:2 complex (human) (UniProt Q6PIF2+Q9BXU0); test: SEC-MALS; co-purified complexes at >1 mg/ml on Superdex 200 Increase 10/300 GL in 20 mM Tris pH 8.0, 150 mM KCl, 2 mM DTT; in Fig. 1 core at 200 uM and full-length at 100 uM (4 mg/ml); both purified
[7] = target: T3, SYCE2-TEX12 full-length LFIL (TEX12 L110E F114E I117E L121E) 2:2 complex (human); test: negative-stain electron microscopy; co-purified complexes at 0.005-3 mg/ml on carbon-coated grids, 2% uranyl acetate; fibres detected and measured by image analysis; both purified
[8] = target: SYCE2-TEX12 full-length FFV (TEX12 F102A F109A V116A), 2:2 building block (human) (UniProt Q6PIF2+Q9BXU0); test: as above

- binding [1]: binds
B1: TEX12 core L110E F114E I117E L121E (domain or fragment, human, UniProt Q9BXU0 49-123, looked up)
chain: KDEALEKDLNDVSKEINLMLSTYAKLLSERAAVDASYIDEIDELFKEANAIENFLIQKREFERQRETVEANTEHR
notes: TEX12, human, core, residues 49-123, with L110E, F114E, I117E and L121E; also called LFIL (core); source: E. coli BL21 (DE3), co-expressed with SYCE2, purified (Ni-NTA, amylose, ion exchange, SEC); not shown: His6, N-terminal, cleaved

- binding [1]: binds
B2: TEX12 core F102A F109A V116A (domain or fragment, human, UniProt Q9BXU0 49-123, looked up)
chain: KDEALEKDLNDVSKEINLMLSTYAKLLSERAAVDASYIDEIDELFKEANAIENALIQKREALRQRFTAIANTLHR
notes: TEX12, human, core, residues 49-123, with F102A, F109A and V116A; also called FFV (core); source: E. coli BL21 (DE3), co-expressed with SYCE2, purified (Ni-NTA, amylose, ion exchange, SEC); not shown: His6, N-terminal, cleaved

- binding [2]: binds
- binding [3]: binds
- binding [1]: binds
- binding [4]: binds
B3: TEX12 core ΔCtip (amino-acids 49-113) (domain or fragment, human, UniProt Q9BXU0 49-113, looked up)
chain: KDEALEKDLNDVSKEINLMLSTYAKLLSERAAVDASYIDEIDELFKEANAIENFLIQKREFLRQR
notes: TEX12, human, core ΔCtip, residues 49-113; source: E. coli BL21 (DE3), co-expressed with SYCE2, purified (Ni-NTA, amylose, ion exchange, SEC); not shown: His6, N-terminal, cleaved

- binding [5]: binds
B4: SYCE2-TEX12 full-length wild-type, 2:2 building block (complex, human)
chain 1: MERQGVDVPHVKCKDQEPQPLGESKEHPRWEENCEEEAGGGPASASCQLTVLEGKSGLYFSSLDSSIDILQKRAQELIENINKSRQKDHALMTNFRNSLKTKVSDLTEKLEERIYQIYNDHNKIIQEKLQEFTQKMAKISHLETELKQVCHSVETVYKDLCLQPEQSLRLRWGPDHSRGKSPPRPGNSQPPDVFVSSVAETTSQATASEVQTNRDGEC
chain 2: MMANHLVKPDNRNCKRPRELESPVPDSPQLSSLGKSDSSFSEISGLFYKDEALEKDLNDVSKEINLMLSTYAKLLSERAAVDASYIDEIDELFKEANAIENFLIQKREFLRQRFTVIANTLHR
notes: SYCE2, human, full-length, residues 1-218; TEX12, human, full-length, residues 1-123; m2 + m9; also called full-length SYCE2-TEX12; source: E. coli BL21 (DE3), co-expressed, purified (Ni-NTA, amylose, ion exchange, SEC); not shown: MBP, N-terminal, cleaved; His6, N-terminal, cleaved; copies: 2 + 2

- binding [6]: no binding (tested: >1 mg/ml)
- binding [7]: no binding (tested: 0.005-3 mg/ml)
B5: SYCE2-TEX12 full-length LFIL (TEX12 L110E F114E I117E L121E) 2:2 complex (complex, UniProt Q6PIF2 1-218; Q9BXU0 1-123)
chain 1: MERQGVDVPHVKCKDQEPQPLGESKEHPRWEENCEEEAGGGPASASCQLTVLEGKSGLYFSSLDSSIDILQKRAQELIENINKSRQKDHALMTNFRNSLKTKVSDLTEKLEERIYQIYNDHNKIIQEKLQEFTQKMAKISHLETELKQVCHSVETVYKDLCLQPEQSLRLRWGPDHSRGKSPPRPGNSQPPDVFVSSVAETTSQATASEVQTNRDGEC
chain 2: MMANHLVKPDNRNCKRPRELESPVPDSPQLSSLGKSDSSFSEISGLFYKDEALEKDLNDVSKEINLMLSTYAKLLSERAAVDASYIDEIDELFKEANAIENFLIQKREFERQRETVEANTEHR

- binding [8]: binds weakly
B6: SYCE2-TEX12 full-length FFV (TEX12 F102A F109A V116A), 2:2 building block (complex, human)
chain 1: MERQGVDVPHVKCKDQEPQPLGESKEHPRWEENCEEEAGGGPASASCQLTVLEGKSGLYFSSLDSSIDILQKRAQELIENINKSRQKDHALMTNFRNSLKTKVSDLTEKLEERIYQIYNDHNKIIQEKLQEFTQKMAKISHLETELKQVCHSVETVYKDLCLQPEQSLRLRWGPDHSRGKSPPRPGNSQPPDVFVSSVAETTSQATASEVQTNRDGEC
chain 2: MMANHLVKPDNRNCKRPRELESPVPDSPQLSSLGKSDSSFSEISGLFYKDEALEKDLNDVSKEINLMLSTYAKLLSERAAVDASYIDEIDELFKEANAIENALIQKREALRQRFTAIANTLHR
notes: SYCE2, human, full-length, residues 1-218; TEX12, human, full-length, residues 1-123, with F102A, F109A and V116A; m2 + m14; source: E. coli BL21 (DE3), co-expressed, purified (Ni-NTA, amylose, ion exchange, SEC); not shown: MBP, N-terminal, cleaved; His6, N-terminal, cleaved; copies: 2 + 2

Reference: publication PMC7612376, “Structural basis of meiotic chromosome synaptic elongation through hierarchical fibrous assembly of SYCE2-TEX12” (Nature structural & molecular biology, 2021)
